Measured values as given in EPA's CvTdb concentration-time database.
This continues a long series; more values of the same kind are listed elsewhere.

Columns and labels:
Assay in all cases: concentration in plasma after dosing
Rat [1] = conditions: dosed: Dibromoacetic acid, 25 mg/kg, iv, Female, F344
Rat [2] = conditions: dosed: Dibromoacetic acid, 25 mg/kg, iv, Male, F344
Rat [3] = conditions: dosed: Dibromoacetic acid, 125 mg/kg, oral, Male, F344
Rat [4] = conditions: dosed: Dibromoacetic acid, 25 mg/kg, iv, Male, F344; remark: listed apart in the source
Rat [5] = conditions: dosed: Dibromoacetic acid, 25 mg/kg, iv, Male, F344; remark: listed apart in the source
Rat [6] = conditions: dosed: Dibromoacetic acid, 125 mg/kg, oral, Male, F344; remark: listed apart in the source
Rat [7] = conditions: 5 min; dosed: Dibromoacetic acid; 50 mg/kg; oral; Male; F344
Rat [8] = conditions: dosed: Dibromoacetic acid, 125 mg/kg, oral, Male, F344; remark: listed apart in the source
Rat [9] = conditions: dosed: Dibromoacetic acid, 25 mg/kg, iv, Male, F344; remark: listed apart in the source
Rat [10] = conditions: dosed: Dibromoacetic acid, 50 mg/kg, oral, Male, Harlan Sprague Dawley
Rat [11] = conditions: dosed: Dibromoacetic acid, 50 mg/kg, oral, Male, Harlan Sprague Dawley; remark: listed apart in the source
Rat [12] = conditions: 5 min; dosed: Dibromoacetic acid; 125 mg/kg; oral; Male; F344
Rat [13] = conditions: 1.5 h; dosed: Potassium Perfluorobutane Sulfonate; 20 mg/kg; oral; Female; Harlan Sprague Dawley
Rat [14] = conditions: 1 h; dosed: Potassium Perfluorobutane Sulfonate; 4 mg/kg; oral; Female; Harlan Sprague Dawley
Rat [15] = conditions: 3 h; dosed: Potassium Perfluorobutane Sulfonate; 20 mg/kg; oral; Female; Harlan Sprague Dawley
Rat [16] = conditions: 1 h; dosed: Potassium Perfluorobutane Sulfonate; 20 mg/kg; oral; Female; Harlan Sprague Dawley
Rat [17] = conditions: 1 h; dosed: Potassium Perfluorobutane Sulfonate; 4 mg/kg; oral; Female; Harlan Sprague Dawley; remark: listed apart in the source
Rat [18] = conditions: dosed: Potassium Perfluorobutane Sulfonate, 100 mg/kg, oral, Male, Harlan Sprague Dawley
Rat [19] = conditions: dosed: Potassium Perfluorobutane Sulfonate, 100 mg/kg, oral, Female, Harlan Sprague Dawley
Rat [20] = conditions: dosed: Potassium Perfluorobutane Sulfonate, 4 mg/kg, oral, Female, Harlan Sprague Dawley
Rat [21] = conditions: 0.5 h; dosed: Potassium Perfluorobutane Sulfonate; 20 mg/kg; oral; Female; Harlan Sprague Dawley
Rat [22] = conditions: dosed: Potassium Perfluorobutane Sulfonate, 4 mg/kg, oral, Female, Harlan Sprague Dawley; remark: listed apart in the source
Rat [23] = conditions: 1 h; dosed: Potassium Perfluorobutane Sulfonate; 20 mg/kg; oral; Male; Harlan Sprague Dawley
Rat [24] = conditions: dosed: Potassium Perfluorobutane Sulfonate, 100 mg/kg, oral, Female, Harlan Sprague Dawley; remark: listed apart in the source
Rat [25] = conditions: dosed: Potassium Perfluorobutane Sulfonate, 100 mg/kg, oral, Male, Harlan Sprague Dawley; remark: listed apart in the source
Rat [26] = conditions: dosed: Potassium Perfluorobutane Sulfonate, 100 mg/kg, oral, Male, Harlan Sprague Dawley; remark: listed apart in the source
Rat [27] = conditions: 1.5 h; dosed: Potassium Perfluorobutane Sulfonate; 4 mg/kg; oral; Female; Harlan Sprague Dawley
Rat [28] = conditions: 1.5 h; dosed: Potassium Perfluorobutane Sulfonate; 20 mg/kg; oral; Female; Harlan Sprague Dawley; remark: listed apart in the source
Rat [29] = conditions: dosed: Potassium Perfluorobutane Sulfonate, 100 mg/kg, oral, Male, Harlan Sprague Dawley; remark: listed apart in the source
Rat [30] = conditions: 1 h; dosed: Potassium Perfluorobutane Sulfonate; 100 mg/kg; oral; Female; Harlan Sprague Dawley
Rat [31] = conditions: 6 h; dosed: Potassium Perfluorobutane Sulfonate; 20 mg/kg; oral; Female; Harlan Sprague Dawley
Rat [32] = conditions: dosed: Potassium Perfluorobutane Sulfonate, 100 mg/kg, oral, Female, Harlan Sprague Dawley; remark: listed apart in the source
Rat [33] = conditions: dosed: Potassium Perfluorobutane Sulfonate, 4 mg/kg, oral, Female, Harlan Sprague Dawley; remark: listed apart in the source
Rat [34] = conditions: dosed: Potassium Perfluorobutane Sulfonate, 4 mg/kg, oral, Female, Harlan Sprague Dawley; remark: listed apart in the source
Rat [35] = conditions: dosed: Potassium Perfluorobutane Sulfonate, 100 mg/kg, oral, Female, Harlan Sprague Dawley; remark: listed apart in the source

O=C(O)C(Br)Br [Dibromoacetic acid]
Conditions	concentration in plasma [ng/mL]
Rat [1], 1 h	2520
Rat [1], 20 min	21000
Rat [2], 7 min	43200
Rat [2], 50 min	4140
Rat [3], 0.75 h	74000
Rat [3], 4 h	5710
Rat [4], 1 h	2560
Rat [4], 20 min	21900
Rat [5], 1 h	2340
Rat [5], 20 min	21400
Rat [6], 1 h	72900
Rat [6], 2 h	30800
Rat [8], 3 h	22300
Rat [8], 20 min	57800
Rat [9], 0.2 h	29900
Rat [9], 55 min	2500
Rat [10], 1 h	22500
Rat [10], 2 h	4040
Rat [11], 1.5 h	10000
Rat [11], 20 min	42800

Conditions	concentration in plasma [ng/mL]
Rat [7]	8430
Rat [12]	59200

O=S(=O)([O-])C(F)(F)C(F)(F)C(F)(F)C(F)(F)F.[K+] [Potassium Perfluorobutane Sulfonate]
Conditions	concentration in plasma [ng/mL]
Rat [13]	34900
Rat [14]	9600
Rat [15]	10100
Rat [16]	30300
Rat [17]	8390
Rat [21]	36600
Rat [23]	78500
Rat [27]	6570
Rat [28]	25400
Rat [30]	125000
Rat [31]	2870

Conditions	concentration in plasma [ng/mL]
Rat [18], 0.25 h	114000
Rat [18], 6 h	91800
Rat [19], 0.75 h	186000
Rat [19], 12 h	366
Rat [20], 0.25 h	3590
Rat [20], 6 h	1210
Rat [22], 0.75 h	11300
Rat [22], 12 h	179
Rat [24], 0.5 h	171000
Rat [24], 9 h	887
Rat [25], 1 h	205000
Rat [25], 24 h	2180
Rat [26], 1.5 h	166000
Rat [26], 48 h	41.3
Rat [29], 0.5 h	235000
Rat [29], 9 h	22600
Rat [32], 0.75 h	155000
Rat [32], 12 h	549
Rat [33], 3 h	3290
Rat [33], 5 min	720
Rat [34], 0.5 h	10300
Rat [34], 9 h	45.4
Rat [35], 0.25 h	106000
Rat [35], 6 h	52300
